Test results taken from PubChem BioAssay AID686979 (National Center for Advancing Translational Sciences (NCATS), 2013).
Out of some 420,000 compounds screened, about 50,000 (12%) were called active. Inconclusive results, whose numbers are uncertain, are shown with a selection of clear calls. Calls come from the whole dose curve; as a rule, active = well fitted inhibition curve with a large enough effect; inconclusive = small, poorly fitted or top-dose-only effect; inactive = flat fitted curve, though single readings scatter. No potency is given beside an inconclusive call; the fits are too rough.

Test: qHTS for Inhibitors of human tyrosyl-DNA phosphodiesterase 1 (TDP1): qHTS in cells in presence of CPT; note: nearly all actives have a fitted effect of over 55% in size
Conditions: chicken DT40 Tdp1-/-;hTDP1 cells + 20 nM CPT, ATP luminescence, 48 h; activity change, negative = growth inhibition: at 46.2 µM (top of the series)
How it was run: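 Cell growth measured by CellTiter-Glo luminescence after a minimum 48 h, 37 C compound exposure with 20 nM CPT in Tdp1-knockout DT40 cells stably expressing hTDP1, seeded 400/well; qHTS titration format.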
% is set by controls: 0 for no effect and ±100 for the full control effect; potency is the fitted concentration of half-maximal effect; tags give direction and shape of the fitted curve.

| Structure (SMILES) | activity change, negative = growth inhibition | Potency |
| --- | --- | --- |
| Cc1ccc(NC(=O)CSc2nnc(-c3ccccn3)n2N)cc1F | inactive: 3.52% |  |
| CCCSc1ccc([C@@H]2[C@H]3C(=O)N(CC)C(=O)[C@H]3[C@]3(C(=O)OC)CCCN23)cc1 |  | inconclusive [inhibitor, single point] |
| CC(C)Sc1ncc(Cl)c(C(=O)N(Cc2ccc(F)cc2)C2CCS(=O)(=O)C2)n1 (centres undefined) |  | inconclusive [inhibitor, single point] |
| O=C1CCCN1CN(C(=O)c1ccccc1)c1ccc(F)cc1 |  | inconclusive [inhibitor, partial curve] |
| Cc1cc2nn(-c3cccc4ccccc34)nc2cc1NC(=O)c1cccs1 |  | active: 23.1 µM |
| CCC(C)[C@H]1CNC(=S)N1CCC12CC3CC(CC(C3)C1)C2 (some centres undefined) |  | active: 16.4 µM |
| Cc1ccc(NS(=O)(=O)c2cccc(C(=O)NNC(=O)c3ccco3)c2)c(C)c1 | inactive: -23.3% |  |
| Cc1nn(Cc2ccccc2)c2c1C(c1cccnc1)C(C#N)=C(N)O2 (centres undefined) |  | inconclusive [inhibitor, single point] |
| C=CCN(c1ccccc1)S(=O)(=O)c1cccc(C(=O)Nc2nnc(SCC)s2)c1 |  | inconclusive [inhibitor, single point] |
| O=C(Nc1nnc(-c2cccnc2)o1)c1cccc(Cl)c1 |  | active: 23.1 µM |
| COc1ccc(Cc2c(-c3ccc(C#N)cc3)nc3c4ccccc4ccn23)c(C)c1 |  | inconclusive [inhibitor, single point] |
| COc1ccc2[nH]c(S(=O)Cc3ncc(C)c(OC)c3C)nc2n1 (centres undefined) |  | inconclusive [inhibitor, single point] |
| COc1cc(-c2nnc(SCC(=O)c3ccccc3)o2)cc(OC)c1OC |  | inconclusive [inhibitor, single point] |
| O=C(COc1ccc(Br)cc1F)NC1CC1 |  | inconclusive [inhibitor, single point] |
| CS(=O)(=O)Nc1cccc(-c2cncnc2NCc2ccccc2)c1 | inactive: -3.02% |  |
| O=C(CSc1nc(C2CC2)nc2ccccc12)N1CCc2ccccc21 | inactive: -15.7% |  |
| CCOC(=O)c1cnc2c(cnn2C)c1NCCC(O)C(F)(F)F (centres undefined) |  | inconclusive [inhibitor, single point] |
| COc1ccc(OCc2cc(C(=O)NCC3(C)COC3)no2)c(Cl)c1 |  | inconclusive [inhibitor, single point] |
| Cn1c(=O)c2c(nc(NCCNC(=O)c3ccco3)n2Cc2ccccc2)n(C)c1=O |  | inconclusive [inhibitor, single point] |
| CCc1noc(C)c1C(=O)N(CC)c1nc2c(C)cccc2s1 |  | inconclusive [inhibitor, single point] |
| Cc1ccnc(NS(=O)(=O)c2ccc(NC(=O)c3c(-c4ccccc4Cl)noc3C)cc2)n1 | inactive: -8.01% |  |
| CCOC(=O)C(C(C)=O)c1c(Br)c(O)c(O)c2c(C(=O)c3ccc(C)cc3)coc12 (centres undefined) |  | active: 2.91 µM |
| CCc1cccc(N2C(=O)CS(=O)(=O)C23C(=O)N(Cc2ccc(F)cc2)c2ccc(C)cc23)c1 (centres undefined) |  | inconclusive [inhibitor, single point] |

| Structure (SMILES) | activity change, negative = growth inhibition | Potency |
| --- | --- | --- |
| O=C(NCCC1=CCCCC1)c1ccc2c(c1)N(Cc1ccccc1F)C(=O)c1ccccc1S2(=O)=O |  | inconclusive [inhibitor, single point] |
| COc1ccc(CC(=O)NNC2=Nc3cccc4cccc2c34)cc1 | inactive: -10.8% |  |
| CCc1nc2ccc(C(=O)Nc3ccc4c(c3)OCC(=O)N4)cn2c1N(CC)CCOC |  | inconclusive [inhibitor, single point] |
| Cc1ccc(C(O)c2ncc(-c3ccc(Cl)cc3)[nH]2)c(C)c1 (centres undefined) |  | inconclusive [inhibitor, single point] |
| CCCCN(C)CCNC(=O)CCn1nc(-c2ccc(C)cc2)ccc1=O |  | active: 20.6 µM |
| COc1ccc(N2CCN(C(=O)CCC(=O)N3CC(C)Oc4ccc(C)cc43)CC2)cc1 (centres undefined) |  | inconclusive [inhibitor, partial curve] |
| COc1ccc(S(=O)(=O)Nc2c(NC3CCCCC3)c3ccccc3oc2=O)cc1Cl |  | inconclusive [inhibitor, single point] |
| COc1ccccc1-c1cc2nc(NCCc3ccc(S(N)(=O)=O)cc3)ccn2n1 |  | inconclusive [inhibitor, single point] |
| COc1ccc(N2Cc3cccc(C(=O)Nc4ccc(C)c(C)c4)c3C2=O)cc1 | inactive: -18.5% |  |
| Cc1onc(-c2ccccc2)c1-c1nnc(COC(=O)c2ccc(N(C)C)cc2)o1 |  | active: 20.6 µM |
| CCCCn1c(C(C)NC(=O)c2cccs2)nc2ccccc21 (centres undefined) | inconclusive: -31.7% [inhibitor] |  |
| COc1ccc(OCC(=O)NC2CCCCCCC2)cc1 |  | inconclusive [inhibitor, single point] |
| Cc1cc(C)c2c(N)c(C(=O)Nc3ncc(C)s3)sc2n1 |  | active: 16.4 µM |
| Cc1nc(-c2cccnc2)sc1C(=O)Nc1cccc(C(F)(F)F)c1 |  | inconclusive [inhibitor, single point] |
| CN(C)CCNc1oc(-c2ccccc2Cl)nc1S(=O)(=O)c1ccccc1 | inactive: -16.5% |  |
| COc1cccc(-n2nnc3c(=O)n(CC(=O)N4CCC(Cc5ccccc5)CC4)cnc32)c1 |  | inconclusive [inhibitor, single point] |
| Cc1ccc(SCc2c(C(=O)N/N=C/C3CC=CCC3)nnn2-c2nonc2N)cc1 (centres undefined) | inactive: -6.45% |  |
| Cc1cccc(C(=O)OCC(=O)NC(=O)NC2CCCCC2)c1 |  | inconclusive [inhibitor, single point] |
| Cc1ccc(S(=O)(=O)c2nc(-c3ccco3)oc2SCc2ccccc2Cl)cc1 |  | inconclusive [inhibitor, single point] |
| O=C(NCCc1ccccc1)C1CCC(Cn2c(=O)c3ccccc3n(Cc3cccc(F)c3)c2=O)CC1 (centres undefined) |  | inconclusive [inhibitor, full curve] |
| O=C(CSc1ccc(Cl)cc1)N1CCN(c2ncc(C(F)(F)F)cc2Cl)CC1 |  | inconclusive [inhibitor, single point] |
| Cn1cnnc1SCc1ccc(-c2ccc(Br)cc2)o1 |  | inconclusive [inhibitor, partial curve] |
| Cc1csc(NC(=O)C2=COCCO2)n1 | inactive: -2.18% |  |

| Structure (SMILES) | activity change, negative = growth inhibition | Potency |
| --- | --- | --- |
| CCOC(=O)c1c(NC(=O)c2ccc(S(=O)(=O)N3CCCC(C)C3)cc2)sc2c1CCN(C(C)C)C2 (centres undefined) |  | active: 8.2 µM |
| Cc1ccc(NC(=S)N2CCC(c3ccccc3)C2)c(Cl)c1 (centres undefined) |  | inconclusive [inhibitor, single point] |
| CN(c1ccccc1C(=O)Nc1cccc(Br)c1)S(=O)(=O)c1ccccc1 |  | inconclusive [inhibitor, partial curve] |
| COC(=O)C1=C(C)NC(=O)CC1c1cccc(Cl)c1Cl (centres undefined) |  | inconclusive [inhibitor, single point] |
| COc1ccc(C(CNC(=O)C(C)Oc2ccc(Br)cc2)N2CCCC2)cc1 (centres undefined) |  | inconclusive [inhibitor, single point] |
| Nc1ccccc1Sc1nc2ccccc2[nH]1 |  | active: 13 µM |
| COc1ccc(C(O)c2ncc(-c3ccccc3)[nH]2)c(OC)c1 (centres undefined) | inactive: -22.3% |  |
| COc1ccc2c(c1)C(=O)N(c1ccccc1OC)C(=O)C2(C)C |  | inconclusive [inhibitor, single point] |
| CCOc1ccc(CNC(=S)Nc2ccccc2)cc1Cl |  | inconclusive [inhibitor, single point] |
| Cc1csc(NC(=O)CSc2nnc(-c3ccoc3C)o2)n1 |  | inconclusive [inhibitor, single point] |
| Cc1cc(C)cc(NC(=O)C(=O)NC(C)c2ccccc2)c1 (centres undefined) |  | inconclusive [inhibitor, partial curve] |
| COc1ccc(C2CC(=O)C=C(NCc3ccc4c(c3)OCO4)C2)cc1 (centres undefined) |  | inconclusive [inhibitor, single point] |
| COc1cccc(C(=O)NNC(=O)C(=O)Nc2ccc(OC)cc2OC)c1 |  | inconclusive [inhibitor, single point] |
| CN(C)S(=O)(=O)c1cccc(NC(=S)NC(=O)c2ccco2)c1 |  | inconclusive [inhibitor, single point] |
| CCOC(=O)c1cc(-c2ccccc2)n(-c2cccc(C(=O)N(CC)c3ccccc3)c2)c1C |  | active: 14.6 µM |
| CC(C)N(Cc1nnc(-c2ccccc2Br)o1)C(=O)c1cc(Cl)nc2ccccc12 |  | inconclusive [inhibitor, single point] |
| CC(=O)OC1COC(N2CCc3cc([N+](=O)[O-])ccc32)C(OC(C)=O)C1OC(C)=O (centres undefined) | inactive: -11.1% |  |
| CC(C)(C)C(=O)Nc1ccc(C(=O)N/N=C/c2ccccc2OC(=O)c2ccc(Cl)cc2)cc1 |  | active: 5.17 µM |
| c1ccc(-c2nn[nH]n2)cc1 | inactive: -2.29% |  |
| Cc1ccc(-n2c(SCC(=O)Nc3cccc(F)c3)nc3c(oc4ccccc43)c2=O)cc1C |  | inconclusive [inhibitor, single point] |
| COc1ccc(-c2csc3ncn(Cc4ccccc4)c(=O)c23)cc1 |  | inconclusive [inhibitor, single point] |
| CC(C)c1ccc2oc(-c3cccc(NC(=O)c4ccc5c(c4)OCCO5)c3)nc2c1 |  | inconclusive [inhibitor, single point] |
| Cc1ccc2c(c1)OC(=O)CC2c1ccccc1 (centres undefined) | inactive: 9.08% |  |
